Assay results as given in PubChem BioAssay AID1508624 (National Center for Advancing Translational Sciences (NCATS), 2021).
Hit rate of the full screen: of about 48,000 compounds, about 120 (0.25%) were called active. Another 4% or so got no clear call; they are omitted. Calls come from the whole dose curve; as a rule, active = well fitted activation curve with a large enough effect; inconclusive = small, poorly fitted or top-dose-only effect, or another doubt; inactive = no such curve, though single readings can be large or run the other way. This is one part of the list.

experiment: Primary qHTS for Identification of Small Molecule Activators of Huntingtin-Antisense Promoter Activity; settings: HEK293 HTT-AS promoter firefly luciferase reporter (activity 0% = vehicle and -100% = no light), 24 h; series mostly up to 57.5 µM; activity change, positive = activation: at the top concentration; note: nearly all actives have a fitted effect of over 55% in size
Method in brief: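 HEK293 Fluc reporter, 2,500 cells/well, 24 h pre-culture; cpds up to 57.5 uM final, 24 h 37 degrees C; Dual-Glo, 10 min RT; normalized vehicle = 0%, zero RLU = -100%.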

Activity change, positive = activation, inactive:
Cc1ccc(Cl)cc1N1CCN(C(=O)COc2cc(=O)n(C)c3ccccc23)CC1 -36.8%, COc1ccc(Nc2nc3c(S(=O)(=O)c4ccc(C)cc4)nnn3c3ccsc23)cc1Cl -19.6%, Cc1ccc(/C=C/c2onc(C)c2S(=O)(=O)N2CCC(C(=O)N3CCN(c4cc(C)ccc4C)CC3)CC2)cc1 -29.8%, O=C(NOCC(O)CO)c1cc(Br)c(F)c(F)c1Nc1ccc(I)cc1F (stereo unspecified) -26.2%, CC(=O)N1CCc2c(sc3c2c(=O)n(Cc2ccccc2)c(=O)n3Cc2ccccc2Cl)C1 -47.2%, CCCCN(CC)C(=O)CSc1nc2ccccc2c(=O)n1Cc1ccco1 -32.4%, COc1cc(-c2nc(-c3ccccc3)c(-c3ccc(Br)cc3)[nH]2)cc(OC)c1O -14%, COc1ccc(NC(=O)C2CCN(c3ccc(Sc4ccc(C)cc4)nn3)CC2)cc1 -13.7%, COC(=O)c1cc2sc(Cl)cc2n1Cc1nc(-c2ccccc2C)oc1C 7.15%, CC1CN(C(=O)N2CCC(C(=O)NCc3cccs3)CC2)c2ccccc2O1 (stereo unspecified) -7.19%, CCC1CCCCN1CCCNC(=O)c1c(O)nc2cc(C)ccn2c1=O (stereo unspecified) -7.78%, COc1cccc(CNC(=O)Cn2c(=O)nc(-c3ccccc3F)c3cc(Cl)ccc32)c1 4.49%, COc1ccc(Nc2oc(/C=C/c3cc(OC)c(OC)c(OC)c3)nc2C#N)cc1 -15.6%, CC1CCN(S(=O)(=O)c2ccc3c(c2)N(CC(=O)NC(C)(C)C)C(=O)CS3)CC1 -1.29%, Cc1ccccc1C(=O)Nc1cccc(C(=O)OCc2cc(=O)n3c(C)csc3n2)c1 -22.3%, COc1ccc(CNC(=O)c2ccc(NC(=O)N3CCSc4ncccc43)cc2)c(OC)c1 -15.9%, CCOc1ccc2oc(=O)cc(CN3CCN(C(=O)c4cccc(Cl)c4)CC3)c2c1 -15.7%, Cc1ccc(C)c(Nc2nn3c(=O)c4ccc(C(=O)N(C)Cc5ccccc5)cc4nc3s2)c1 -22.7%, Clc1ccc2ncc(-c3cccc(NC4CNC4)n3)n2c1 -6.06%, COC(=O)c1ccccc1NC(=O)c1sc2nc(C)cc(C)c2c1NC(=O)c1ccccc1Cl -21.1%, Cc1cc(/C=C(\C#N)C(=O)Nc2ccccc2)c(C)n1-c1ccc(F)cc1 -5.07%, CCOC(=O)NNc1ccc(N(CC)CC(C)O)nn1 (stereo unspecified) -2.09%, COc1ccc2c(CNCc3cccs3)c(C(=O)O)n(Cc3cccc(F)c3)c2c1 -23.6%, CC(CNC(=O)c1ccc2nc(CCc3ccccc3)oc2c1)c1ccccc1 (stereo unspecified) -10.2%, COc1ccc(NC(=O)c2ncoc2-c2ccco2)cc1Cl -17%, CCOC(=O)c1cccc(NC(=O)C2CCN(S(=O)(=O)c3c(C)noc3/C=C/c3ccc(C)cc3)CC2)c1 -40.6%
